Test results: patent publication US5002959A, “BU-4146T antibiotic” (Bristol-Myers Squibb Company, priority 1989, dated 1991)

Test system: melanotic melanoma B16
Assay: In vivo antitumor activity against B16 melanoma (ip)

C/C(=C\C(C)C(=O)CC(O)CC1CC(=O)NC(=O)C1)C1OC(=O)/C=C/CC/C=C/C=C\C1C (stereo not shown) [BU-4146T]
maximum T/C: 145%
